The record followed here is paper PMC12136788.

B1: chr4:115894766:115894767:+_ENSMUSG00000028698_ENSMUST00000030464|mus_hu|mus_mus_mus_hu_True|18_18 (ssRNA)
RNA: GGGAGUUCUACAGUCCGACGAUCUUCCACACGGAAAUGUACUUCGGGUUUUCCAACGGCCAGUACCAGUCCGGCCAAACUACCCGAACAGGGUCCUCCCCCUCUCUCCUACAGAACUAAAGCACCCGCCCCCGAACUUUCAAGCAACAGAGGAUUGAGCAUCA
B2: chr11:53076483:53076484:-_ENSMUSG00000020361_ENSMUST00000020630|mus_mus|FALSE|FALSE (ssRNA)
RNA: GGGAGUUCUACAGUCCGACGAUCUUCAAAUAAUUUUGGUCUUUCUUCAGAUUCCUGGAACCGUGUCUUAAUGGGUUGACCUAAACUUUUUAAUUCAGCCAAUUUGUCUACAUAAACUUGCUUUGGUUGAUCUUCUCCAUCUUCCAACAGAGGAUUGAGCAUCA
B3: chr5:64741823:64741824:+_ENSMUSG00000029174_ENSMUST00000119756|mus_hu|FALSE|FALSE (ssRNA)
RNA: GGGAGUUCUACAGUCCGACGAUCGAAAUAUCUCAGACCCCACAACUGCAGCUCACAUGCUAGCAAUACCUGGUAGGGUCUAAAAGGUGUCAGCUGUCCCAUAAAGCAUUUACCUACUAUGACUUUGAUCAACUGUACUUAUGGCAACAGAGGAUUGAGCAUCA
B4: chr4:41951345:41951346:+_ENSG00000109133_ENST00000513702|hu_mus|FALSE|FALSE (ssRNA)
RNA: GGGAGUUCUACAGUCCGACGAUCAAACAAGUUCCGACAAUAUGGAUUUCUUCUAGAGGAAUAUCGAAGAGUAAGAAAUCUAUAAUAUAUAAAAGGCUGGAGCAAACUUCCUUGGCCACUAAAGAGCAUAAAAACUGUAGCAGGCAACAGAGGAUUGAGCAUCA
B5: 114522497_114522721_1165_CDS_ENSMUSG00000031948_ENSMUST00000034426|mouse|control|control (ssRNA)
RNA: GGGAGUUCUACAGUCCGACGAUCUCGGAAGGGUGGGGUGAAGUCGACCUCGUAGGCUUGGCCUUCCGGCCCAUCUGGGUGGUAGGUGAUCUUGUAACUGCCUGUAAUGCUCUUCACCAUCCCUGACAGCAUCUUCUCUGUGAUCAACAGAGGAUUGAGCAUCA
B6: chr1:154963231:154963232:+_ENSMUSG00000042751_ENSMUST00000043313|mus_hu|FALSE|FALSE (ssRNA)
RNA: GGGAGUUCUACAGUCCGACGAUCCUUGGCCUUCUCUACUGGGUGUGGCCCUGAUGAACUCACUGAGUGCUGAGGCUGGCUACAAUGUCCUAUCAGAGGGGAAGUAAUACCACAGGAGCACAUCAAGACUACAAACAUAAAGAACAACAGAGGAUUGAGCAUCA
B7: chr2:9570881:9570882:+_ENSG00000119203_ENST00000238112|hu_mus|hu_hu_hu_mus_False|8_28 (ssRNA)
RNA: GGGAGUUCUACAGUCCGACGAUCACUUGUCUUCUGAAGGAACCAGGGCAGGGCUCCACAGUGAUCCAAAUGGAAAUGACUGAUCAACAGAAGGUCGAUCUCAGCUGGGUCAAUUAAGUCAAUGUAAGGAAGAGCAUCCAUUCCCAACAGAGGAUUGAGCAUCA
B8: chr8:95500983:95500984:-_ENSG00000164944_ENST00000437199|hu_hu|hu_hu_hu_mus_True|1_68 (ssRNA)
RNA: GGGAGUUCUACAGUCCGACGAUCAGAACACAUCUAUCGAGUAAAGGACCGUACAUGACGGCCUCUAACCACUGCCUCACUAACAAACUUUCCUCUCGAGCCUCCACUGCCGCUAUUUGUACUAGCCCAGGACGGUCCCAAGUCCAACAGAGGAUUGAGCAUCA
B9: chr2:128891733:128891734:+_ENSMUSG00000027394_ENSMUST00000035812|mus_mus|motif|central (ssRNA)
RNA: GGGAGUUCUACAGUCCGACGAUCCCUCAGCCUCAGCCCCGCUGUCGGUCUAAUUCCAGGGCCGCGCCUCCGGAUUACCCGGGUGUCUGCCCUGGGCGCCCGCGCCACCGCCCGAGUGGCGAGCGCCACCCGGACGCCGCGCCCCAACAGAGGAUUGAGCAUCA
B10: chr7:92027835:92027836:+_ENSG00000001629_ENST00000265742|hu_mus|FALSE|FALSE (ssRNA)
RNA: GGGAGUUCUACAGUCCGACGAUCAUUGGCACUGGGGUCCUGGCCAGCUGAGUCAAGGUCACUGGAAGAGGGACAGAAAUCACUUCUUGUCUCACUGAGAGGGCGUGAACUCAAAGUGUCAGUUGAAAAUGGGUCACUGUCUGCCAACAGAGGAUUGAGCAUCA
B11: chr18:34476965:34476966:+_ENSMUSG00000005871_ENSMUST00000115781|mus_mus|FALSE|FALSE (ssRNA)
RNA: GGGAGUUCUACAGUCCGACGAUCCAGUUUCCUCCUCAGGGUUGGGCUUGGGGCUUCUUUGAUGAAAGUAGACUGGCGUACUAAUGCAGGCCUUUCUGAUCUGUCUGAUUCACUUCCACUUGAUUUAGUUGAAGACAUUCUAGACAACAGAGGAUUGAGCAUCA
B12: chr17:1265283:1265284:-_ENSG00000108953_ENST00000571732|hu_hu|FALSE|FALSE (ssRNA)
RNA: GGGAGUUCUACAGUCCGACGAUCGUUAGCUGCUGGAAUGAGGUGUUUGUCCAGUACAUCCAGAAUGUCACAACAGAUUAACUUUAGCUCAGUCUCAACCAUUUGCCGAUAUUCCCGAAUCAUUUUUAGCUUGUCUUCUCCUCCCAACAGAGGAUUGAGCAUCA
B13: 29539073_29539193_618_CDS_ENSMUSG00000012535_ENSMUST00000012679|mouse|control|control (ssRNA)
RNA: GGGAGUUCUACAGUCCGACGAUCAGUUAGCAAUGAGUCCCUUAAAGAAGCAUGAGAGUCUGUGGGGAGCUCAUAAAAUGAGGUCUGAAUCUUCAUUUUCAUGGUCUGGGCAGCGAAAUAGCAUGAUUCCACAUCCUGUCGGAUCAACAGAGGAUUGAGCAUCA
B14: chr12:42180722:42180723:-_ENSMUSG00000036295_ENSMUST00000043884|mus_hu|mus_mus_mus_hu_True|8_108 (ssRNA)
RNA: GGGAGUUCUACAGUCCGACGAUCCUGUAGGAGCAGAAUCUGUGUGUUAGCUGGCAAUCUGGCUGGGAAAGUUAAAAGACCUAAAUCAUUACAAUCCACUGUAGAUGCUUCCAUAUAAAUGGAUCUGGGGGUAAACCAAGGCCUCAACAGAGGAUUGAGCAUCA

Some of the results follow.

This assay concerns the target T1, UNK ZnF1-3 (human, UniProt Q9C0B0 31-174).
T1 sequence: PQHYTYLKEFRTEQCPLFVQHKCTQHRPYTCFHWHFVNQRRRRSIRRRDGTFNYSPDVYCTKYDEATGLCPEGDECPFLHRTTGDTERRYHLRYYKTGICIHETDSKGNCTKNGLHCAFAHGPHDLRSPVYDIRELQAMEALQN
The assay can be described thus: nsRBNS (natural sequence RNA bind-n-seq); RBNS binding buffer (assumed for nsRBNS): 25 mM Tris pH 7.5, 150 mM KCl, 3 mM MgCl2, 0.01% Triton X-100, 500 ug/ml BSA, 20 U/ml SUPERase-In, 4 C; UNK is unkempt and MSI1 is Musashi-1; names of the RNAs are library labels; protein concentration not given here; high values mean tight binding.
B1 yielded a binding signal of 1.07 enrichment R. B2 returned a binding signal of 0.655 enrichment R. For B3 the value was 0.524 enrichment R; for B4, 2.07 enrichment R; for B5, 0.66 enrichment R. For B6, the binding signal came out at 1.17 enrichment R.

In turn, B7 registered a binding signal of 1.47 enrichment R.

For the molecule B8, the binding signal turned out to be 1.04 enrichment R.

Regarding B9, the binding signal worked out at 0.864 enrichment R.

In turn, B10 displayed a binding signal of 1.35 enrichment R.

In the case of B11, the binding signal amounted to 0.627 enrichment R. As to B12, the binding signal was found to be 0.903 enrichment R. Molecule B13 displayed a binding signal of 1.33 enrichment R. For B14 the value was 1.04 enrichment R.
